Reference: publication PMC10668032
The list shows a part of the results. At the low end of the ranking the order means little.

molecular target: SIX1 homeodomain (reference allele) (UniProt Q15475); assay: universal protein binding microarray; settings: Universal all-10-mer PBM (8x60K, AMADID 030236), 300 nM GST-tagged protein, Alexa Fluor 488 anti-GST; buffer, salt, pH and temperature not stated; high values mean tight binding; most listed sequences are background and not binding sites; double strand, one strand shown

Sequence | binding signal
CGAACCCG | 0.0612 E-score
AGTCAGCG | -0.16 E-score
CCTATCAC | 0.387 E-score
ACACACAA | -0.0656 E-score
GATCCCAC | 0.379 E-score
CGGCTCAA | 0.138 E-score
AACAGGAA | -0.158 E-score
CGCAGCAG | -0.151 E-score
ACTCAGTG | 0.00344 E-score
ATGATATC | 0.476 E-score
AGCTAAGA | 0.0234 E-score
CAATACAA | -0.0114 E-score
ATTCCTGC | -0.0499 E-score
ACATCCAG | 0.0701 E-score
ACGCTTTG | -0.116 E-score
ATTGCTCC | -0.195 E-score
CCAGTTCG | -0.148 E-score
GCTCAAAA | -0.235 E-score
AAACGAAT | -0.135 E-score
AGGGCGAG | -0.129 E-score
CAAGGACA | 0.083 E-score
CGAGCCGC | 0.0277 E-score

Sequence | binding signal
AGACTGAT | 0.203 E-score
GCCTAGGA | -0.157 E-score
GCCGAGCA | -0.213 E-score
AATGAGCT | 0.0351 E-score
CCCATTCC | -0.0994 E-score
CAGAGCAG | -0.0504 E-score
AACAGAAG | -0.103 E-score
CCCTGTTC | -0.0415 E-score
AACGTGGC | -0.289 E-score
CATGTACC | -0.138 E-score
GCAGAAGC | -0.0902 E-score
AAGCCCGA | -0.149 E-score
CGTAGACC | -0.133 E-score
TAAACGGA | 0.0177 E-score
AACACCAG | 0.164 E-score
GCCGCACC | -0.114 E-score
TCTTGCAA | 0.016 E-score
GTAGCGAC | -0.149 E-score
AGGGCGCC | -0.0615 E-score
CAACACCG | 0.268 E-score
AGTCTGCC | -0.276 E-score
CCAGTAGC | -0.0562 E-score

Sequence | binding signal
AAGTTTGA | -0.196 E-score
GGAAGAAC | -0.0415 E-score
CTCGTGGA | 0.0194 E-score
TAGTACCA | -0.0455 E-score
CAGGGAGC | -0.0701 E-score
CACCGATC | 0.305 E-score
AGTGCGGC | -0.237 E-score
CCATATCC | 0.424 E-score
GTCGGTGA | -0.0501 E-score
CGCAGTGA | 0.0026 E-score
CAGGCTAA | -0.0834 E-score
CTGGTCGC | -0.0995 E-score
CACGACCG | -0.0541 E-score
CCATAACG | -0.0978 E-score
CAGATCCC | 0.295 E-score
AAATGCCG | 0.0387 E-score
AATGAACG | -0.137 E-score
ATAAGGTA | 0.247 E-score
GACAAAGC | -0.161 E-score
TCTTGAAA | -0.133 E-score
CGAGCGAG | -0.0686 E-score
GATGGAGA | 0.115 E-score

Sequence | binding signal
ACTCGCCT | -0.196 E-score
AACCCACT | -0.0296 E-score
CGGACGAG | -0.0259 E-score
GCAACGGC | -0.0657 E-score
CCGGACCC | -0.0779 E-score
ATGTGATC | 0.32 E-score
ACACCATG | 0.306 E-score
TAAACCAA | -0.139 E-score
ACTCAGGA | -0.0788 E-score
AAGCCGGA | 0.159 E-score
GCGAGGGA | 0.129 E-score
ACCGTAAA | -0.0485 E-score
GGCTCAAC | 0.0429 E-score
GACCACGA | -0.108 E-score
CACTCAAG | -0.129 E-score
AAAGATAT | 0.351 E-score
GTTACATA | 0.0693 E-score
ACCCCCCT | -0.0405 E-score
AAAACCAC | -0.0309 E-score
AACCAACC | -0.155 E-score
CGACACCC | 0.439 E-score
CCAGCAGG | -0.0501 E-score

Sequence | binding signal
CTTCACCA | -0.145 E-score
GAATGACA | -0.153 E-score
CCCTTCCG | -0.0173 E-score
ACCGCGAC | -0.0162 E-score
GAGGGTCA | -0.156 E-score
ACTTTAGC | -0.121 E-score
CAGGAGTA | -0.00349 E-score
ACACGGCC | -0.131 E-score
CCAACACG | -0.129 E-score
AAACACTT | -0.22 E-score
GGAGACAA | 0.104 E-score
CACGATAG | 0.245 E-score
GCTCCGAC | -0.308 E-score
CCATCCCA | 0.142 E-score
CCTTTTAG | -0.147 E-score
ACCCTCCA | -0.059 E-score
ACGACTTG | -0.119 E-score
GGTTACAC | 0.145 E-score
GGGTGAAA | 0.0311 E-score
ATGTAGTA | -0.081 E-score
GAGCGCTC | -0.0898 E-score
AGTAACCA | -0.147 E-score
